Four molecules from patent US20230113563A1 (SYSTIMMUNE, published 2023) can be followed below.

The target in assay [1] is T1, human MICA (Acro, MIA-H5221) (human, UniProt Q29983 24-307, limits assumed).
T1 construct: Bought reagent used as analyte in solution; also called NKG2D ligand MICA
Nature of the assay: BLI (Octet); GNC protein loaded on AHC sensors at 5 ug/ml; human MICA as analyte, 1:2 serial dilutions from 100 nM; global fit, 1:1 model. As for the experimental part: To validate functionality of the NKG2D receptor in the D2 position, Octet binding was performed. GNC protein was loaded onto AHC sensors at 5 ug/ml, and subsequently bound to 1:2 serial dilutions (top concentration 100 nM) of human MICA (Acro, MIA-H5221).

A further assay concerns the target MICA on MDA-MB-231 cells (UniProt Q29983 24-383, limits assumed). Nature of the assay: cell-based or functional assay.

Chain of MICA on MDA-MB-231 cells (Q29983 24-383 limits assumed): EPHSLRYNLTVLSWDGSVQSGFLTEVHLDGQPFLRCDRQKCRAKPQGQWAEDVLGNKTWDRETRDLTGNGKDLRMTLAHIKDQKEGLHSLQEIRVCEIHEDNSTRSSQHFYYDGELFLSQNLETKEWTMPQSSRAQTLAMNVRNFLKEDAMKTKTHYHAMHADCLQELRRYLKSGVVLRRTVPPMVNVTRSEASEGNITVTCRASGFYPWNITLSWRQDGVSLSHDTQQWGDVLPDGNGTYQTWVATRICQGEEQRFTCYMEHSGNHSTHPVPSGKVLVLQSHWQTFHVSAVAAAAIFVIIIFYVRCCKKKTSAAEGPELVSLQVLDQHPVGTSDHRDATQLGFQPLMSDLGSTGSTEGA

B1: SI-49E15 (other)
heavy: EIVMTQSPSTLSASVGDRVIITCQASESISSWLAWYQQKPGKAPKLLIYEASKLASGVPSRFSGSGSGAEFTLTISSLQPDDFATYYCQGYFYFISRTYVNSFGCGTKLTVLGSTGSGSKPGSGEGSTKGEVQLVESGGGLVQPGGSLRLSCTASGFTISTNAMSWVRQAPGKCLEWVGVITGRDITYYASWAKGRFTISRDTSKNTVYLQMNSLRAEDTAVYYCARDGGSSAITSNNIWGQGTLVTVSTGGGGSGGGGSFLNSLFNQEVQIPLTESYCGPCPKNWICYKNNCYQFFDESKNWYESQASCMSQNASLLKVYSKEDQDLLKLVKSYHWMGLVHIPTNGSWQWEDGSILSPNLLTIIEMQKGDCALYASSFKGYIENCSTPNTYICMQRTVASTKGPSVFPLAPSSKSTSGGTAALGCLVKDYFPEPVTVSWNSGALTSGVHTFPAVLQSSGLYSLSSVVTVPSSSLGTQTYICNVNHKPSNTKVDKRV[human IgG1 Fc with L234A L235A N297A K322A (EU numbers) cut from this listing]GGGGSGGGGSEVQLLESGGGLVQPGGSLRLSCAASGFSFSSGYDMCWVRQAPGKCLEWIACIAAGSAGITYDANWAKGRFTISRDNSKNTLYLQMNSLRAEDTAVYYCARSAFSFDYAMDLWGQGTLVTVSSGGGGSGGGGSGGGGSGGGGSDIQMTQSPSTLSASVGDRVTITCQASQSISSHLNWYQQKPGKAPKLLIYKASTLASGVPSRFSGSGSGTEFTLTISSLQPDDFATYYCQQGYSWGNVDNVFGCGTKVEIKGGGGSGGGGSGRSLVESGGGLVQPGGSLRLSCTASGFTISSYHMQWVRQAPGKCLEYIGTISSGGNVYYASSARGRFTISRPSSKNTVDLQMNSLRAEDTAVYYCARDSGYSDPMWGQGTLVTVSSGGGGSGGGGSGGGGSGGGGSDVVMTQSPSSVSASVGDRVTITCQASQNIRTYLSWYQQKPGKAPKLLIYAAANLASGVPSRFSGSGSGTDFTLTISDLEPGDAATYYCQSTYLGTDYVGGAFGCGTKVEIK
light: FLNSLFNQEVQIPLTESYCGPCPKNWICYKNNCYQFFDESKNWYESQASCMSQNASLLKVYSKEDQDLLKLVKSYHWMGLVHIPTNGSWQWEDGSILSPNLLTIIEMQKGDCALYASSFKGYIENCSTPNTYICMQRTVRTVAAPSVFIFPPSDEQLKSGTASVVCLLNNFYPREAKVQWKVDNALQSGNSQESVTEQDSKDSTYSLSSTLTLSKADYEKHKVYACEVTHQGLSSPVTKSFNRGEC
notes: Tetra-specific GNC: anti-CD3 scFv at D1, NKG2D at D2, anti-PD-L1 scFv at D3, anti-4-1BB scFv at D4
Usually Kd stands for a measure of binding affinity in units of concentration. A high value points to lower affinity. For the molecule B1, in assay [1], the Kd is 3.34 nM.

B2: SI-49P6 (other)
heavy: B1 heavy
light: ENVLTQSPASLSASPGERVTITCSASSSVSYMHWYQQKPGQAPKLWIYDTSKLASGVPSRFSGSGSGNDHTLTISSMEPEDFATYYCFQGSVYPFTFGQGTKLEIKGSTGSGSKPGSGEGSTKGQVTLKESGPGLVQPGQTLRLTCAFSGFSLSTSGMGVGWIRQPPGKGLEWLAHIWWDDDKRYNPALKSRLTISKDTSKNQVYLQMNSLDAEDTAVYYCARMELWSYYFDYWGQGTLVTVSSGGGGSGGGGSGGGGSFLNSLFNQEVQIPLTESYCGPCPKNWICYKNNCYQFFDESKNWYESQASCMSQNASLLKVYSKEDQDLLKLVKSYHWMGLVHIPTNGSWQWEDGSILSPNLLTIIEMQKGDCALYASSFKGYIENCSTPNTYICMQRTVRTVAAPSVFIFPPSDEQLKSGTASVVCLLNNFYPREAKVQWKVDNALQSGNSQESVTEQDSKDSTYSLSSTLTLSKADYEKHKVYACEVTHQGLSSPVTKSFNRGEC
notes: Penta-specific GNC: same domains as SI-49E15 plus anti-CD19 (SI-BU12) scFv at D6
Take B2: the Kd in assay [1] was determined as 8.7 nM.

B3: SI-49E1 (other)
heavy: FLNSLFNQEVQIPLTESYCGPCPKNWICYKNNCYQFFDESKNWYESQASCMSQNASLLKVYSKEDQDLLKLVKSYHWMGLVHIPTNGSWQWEDGSILSPNLLTIIEMQKGDCALYASSFKGYIENCSTPNTYICMQRTVGGGGSGGGGSGGGGSGGGGSFLNSLFNQEVQIPLTESYCGPCPKNWICYKNNCYQFFDESKNWYESQASCMSQNASLLKVYSKEDQDLLKLVKSYHWMGLVHIPTNGSWQWEDGSILSPNLLTIIEMQKGDCALYASSFKGYIENCSTPNTYICMQRTVVDGGGGSGGGGSEVQLVESGGGLVQPGGSLRLSCAASGFTISTNAMSWVRQAPGKGLEWIGVITGRDITYYASWAKGRFTISRDNSKNTLYLQMNSLRAEDTAVYYCARDGGSSAITSNNIWGQGTLVTVSSASTKGPSVFPLAPSSKSTSGGTAALGCLVKDYFPEPVTVSWNSGALTSGVHTFPAVLQSSGLYSLSSVVTVPSSSLGTQTYICNVNHKPSNTKVDKRV[human IgG1 Fc with changes cut from this listing]GGGGSGGGGSEVQLLESGGGLVQPGGSLRLSCAASGFSFSSGYDMCWVRQAPGKGLEWIACIAAGSAGITYDANWAKGRFTISRDNSKNTLYLQMNSLRAEDTAVYYCARSAFSFDYAMDLWGQGTLVTVSSGGGGSGGGGSGGGGSGGGGSDIQMTQSPSTLSASVGDRVTITCQASQSISSHLNWYQQKPGKAPKLLIYKASTLASGVPSRFSGSGSGTEFTLTISSLQPDDFATYYCQQGYSWGNVDNVFGGGTKVEIKGGGGSGGGGSGRSLVESGGGLVQPGGSLRLSCTASGFTISSYHMQWVRQAPGKGLEYIGTISSGGNVYYASSARGRFTISRPSSKNTVDLQMNSLRAEDTAVYYCARDSGYSDPMWGQGTLVTVSSGGGGSGGGGSGGGGSGGGGSDVVMTQSPSSVSASVGDRVTITCQASQNIRTYLSWYQQKPGKAPKLLIYAAANLASGVPSRFSGSGSGTDFTLTISDLEPGDAATYYCQSTYLGTDYVGGAFGGGTKVEIK
light: DVVMTQSPSTLSASVGDRVTINCQASESISSWLAWYQQKPGKAPKLLIYEASKLASGVPSRFSGSGSGTEFTLTISSLQPDDFATYYCQGYFYFISRTYVNSFGGGTKVEIKRTVAAPSVFIFPPSDEQLKSGTASVVCLLNNFYPREAKVQWKVDNALQSGNSQESVTEQDSKDSTYSLSSTLTLSKADYEKHKVYACEVTHQGLSSPVTKSFNRGEC
Turning to B3, the “TDCC EC50 (pM), MDA-MB-231 target cells, E:T 5” value with MICA on MDA-MB-231 cells was 0.054 pM.

B4: SI-49E2 (other)
heavy: FLNSLFNQEVQIPLTESYCGPCPKNWICYKNNCYQFFDESKNWYESQASCMSQNASLLKVYSKEDQDLLKLVKSYHWMGLVHIPTNGSWQWEDGSILSPNLLTIIEMQKGDCALYASSFKGYIENCSTPNTYICMQRTVGGGGSGGGGSGGGGSGGGGSFLNSLFNQEVQIPLTESYCGPCPKNWICYKNNCYQFFDESKNWYESQASCMSQNASLLKVYSKEDQDLLKLVKSYHWMGLVHIPTNGSWQWEDGSILSPNLLTIIEMQKGDCALYASSFKGYIENCSTPNTYICMQRTVVDGGGGSGGGGSEVQLVESGGGLVQPGGSLRLSCAASGFTISTNAMSWVRQAPGKGLEWIGVITGRDITYYASWAKGRFTISRDNSKNTLYLQMNSLRAEDTAVYYCARDGGSSAITSNNIWGQGTLVTVSSASTKGPSVFPLAPSSKSTSGGTAALGCLVKDYFPEPVTVSWNSGALTSGVHTFPAVLQSSGLYSLSSVVTVPSSSLGTQTYICNVNHKPSNTKVDKRV[human IgG1 Fc with changes cut from this listing]GGGGSGGGGSRSLVESGGGLVQPGGSLRLSCTASGFTISSYHMQWVRQAPGKGLEYIGTISSGGNVYYASSARGRFTISRPSSKNTVDLQMNSLRAEDTAVYYCARDSGYSDPMWGQGTLVTVSSGGGGSGGGGSGGGGSGGGGSDVVMTQSPSSVSASVGDRVTITCQASQNIRTYLSWYQQKPGKAPKLLIYAAANLASGVPSRFSGSGSGTDFTLTISDLEPGDAATYYCQSTYLGTDYVGGAFGGGTKVEIKGGGGSGGGGSGEVQLLESGGGLVQPGGSLRLSCAASGFSFSSGYDMCWVRQAPGKGLEWIACIAAGSAGITYDANWAKGRFTISRDNSKNTLYLQMNSLRAEDTAVYYCARSAFSFDYAMDLWGQGTLVTVSSGGGGSGGGGSGGGGSGGGGSDIQMTQSPSTLSASVGDRVTITCQASQSISSHLNWYQQKPGKAPKLLIYKASTLASGVPSRFSGSGSGTEFTLTISSLQPDDFATYYCQQGYSWGNVDNVFGGGTKVEIK
light: B3 light
Turning to B4, in the assay with MICA on MDA-MB-231 cells, the “TDCC EC50 (pM), MDA-MB-231 target cells, E:T 5” value came out at 0.129 pM.
